# Experimental data taken from the supplement of paper PMC8728848.
# The list shows a part of the results.
# Columns and labels:
# Experiment in all cases: glycan array binding signal (z-score within array); higher = stronger binding
# Conditions in all cases: glycan notation: IUPAC condensed, linker removed
# [1] = target: Fuc(a1-2)[GalNAc(a1-3)]Gal(b1-4)GlcNAc
# Outline: (§1)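 Arrays were curated from the Consortium for Functional Glycomics database, 3228 in total, and kept only where the protein sequence was available. Binding is expressed as a within-array Z-score. This score was averaged across arrays of the same protein sequence at different concentrations or buffers and across linkers, and negative values can be read as non-binding.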
# [2] = target: Fuc(a1-2)[GalNAc(a1-3)]Gal(b1-4)[Fuc(a1-3)]GlcNAc
# Outline: as §1
# [3] = target: Fuc(a1-2)[GalNAc(a1-4)]Gal(b1-4)GlcNAc
# Outline: as §1
# [4] = target: Fuc(a1-2)[GalNAc(b1-3)]Gal
# Outline: as §1
# Fuc(a1-3)GlcNAc = target: Fuc(a1-3)GlcNAc
# Outline: as §1
# [5] = target: Fuc(a1-3)[Gal(b1-4)]Glc6S
# Outline: as §1
# [6] = target: Fuc(a1-3)[Gal(b1-4)]GlcNAc
# Outline: as §1
# [7] = target: Fuc(a1-3)[Gal(b1-4)]GlcNAc(b1-3)Gal(b1-3)[Fuc(a1-4)]GlcNAc
# Outline: as §1
# [8] = target: Fuc(a1-3)[Gal(b1-4)]GlcNAc(b1-4)Gal(b1-4)[Fuc(a1-3)]GlcNAc
# Outline: as §1
# [9] = target: Fuc(a1-3)[Gal(b1-4)]GlcNAc(b1-4)Gal(b1-4)[Fuc(a1-3)]GlcNAc(b1-4)Gal(b1-4)[Fuc(a1-3)]GlcNAc
# Outline: as §1
# [10] = target: Fuc(a1-3)[Gal(b1-4)]GlcNAc6S
# Outline: as §1
# [11] = target: Fuc(a1-3)[Gal3S(b1-4)]Glc6S
# Outline: as §1
# [12] = target: Fuc(a1-3)[Gal3S(b1-4)]GlcNAc
# Outline: as §1
# [13] = target: Fuc(a1-3)[Gal3S(b1-4)]GlcNAc6S
# Outline: as §1
# [14] = target: Fuc(a1-3)[GalNAc(b1-4)]GlcNAc
# Outline: as §1
# Fuc(a1-4)GlcNAc = target: Fuc(a1-4)GlcNAc
# Outline: as §1
# Fuc(b1-3)GlcNAc = target: Fuc(b1-3)GlcNAc
# Outline: as §1
# Gal(a1-2)Gal = target: Gal(a1-2)Gal
# Outline: as §1
# Gal(a1-3)Gal = target: Gal(a1-3)Gal
# Outline: as §1
# Gal(a1-3)Gal(b1-3)GlcNAc = target: Gal(a1-3)Gal(b1-3)GlcNAc
# Outline: as §1
# Gal(a1-3)Gal(b1-4)Glc = target: Gal(a1-3)Gal(b1-4)Glc
# Outline: as §1
# Gal(a1-3)Gal(b1-4)GlcNAc = target: Gal(a1-3)Gal(b1-4)GlcNAc
# Outline: as §1
# [15] = target: Gal(a1-3)Gal(b1-4)[Fuc(a1-3)]GlcNAc
# Outline: as §1
# Gal(a1-3)GalNAc = target: Gal(a1-3)GalNAc
# Outline: as §1
# [16] = target: Gal(a1-3)[Gal(a1-4)]Gal(b1-4)GlcNAc
# Outline: as §1
# Gal(a1-4)Gal(b1-4)Glc = target: Gal(a1-4)Gal(b1-4)Glc
# Outline: as §1
# Gal(a1-4)Gal(b1-4)GlcNAc = target: Gal(a1-4)Gal(b1-4)GlcNAc
# Outline: as §1
# Gal(a1-4)GlcNAc = target: Gal(a1-4)GlcNAc
# Outline: as §1
# Gal(a1-6)Glc = target: Gal(a1-6)Glc
# Outline: as §1
# Gal(b1-2)Gal = target: Gal(b1-2)Gal
# Outline: as §1
# Gal(b1-3)Gal = target: Gal(b1-3)Gal
# Outline: as §1
# Gal(b1-3)GalNAc = target: Gal(b1-3)GalNAc
# Outline: as §1
# [17] = target: Gal(b1-3)GalNAc(b1-3)Gal(a1-4)Gal(b1-4)Glc
# Outline: as §1
# [18] = target: Gal(b1-3)GalNAc(b1-4)Gal(b1-4)Glc
# Outline: as §1
# [19] = target: Gal(b1-3)GalNAc(b1-4)[Neu5Ac(a2-3)]Gal(b1-4)Glc
# Outline: as §1
# Gal(b1-3)GlcNAc = target: Gal(b1-3)GlcNAc
# Outline: as §1
# [20] = target: Gal(b1-3)GlcNAc(b1-3)Gal(b1-3)GlcNAc
# Outline: as §1
binder,measurement,setting,value
"Mindin (Homo sapiens), Q9BUD6 (protein) MENPSPAAALGKALCALLLATLGAAGQPLGGESICSARALAKYSITFTGKWSQTAFPKQYPLFRPPAQWSSLLGAAHSSDYSMWRKNQYVSNGLRDFAERGEAWALMKEIEAAGEALQSVHEVFSAPAVPSGTGQTSAELEVQRRHSLVSFVVRIVPSPDWFVGVDSLDLCDGDRWREQAALDLYPYDAGTDSGFTFSSPNFATIPQDTVTEITSSSPSHPANSFYYPRLKALPPIARVTLVRLRQSPRAFIPPAPVLPSRDNEIVDSASVPETPLDCEVSLWSSWGLCGGHCGRLGTKSRTRYVRVQPANNGSPCPELEEEAECVPDNCV",glycan array binding signal (z-score),[1],-0.266
same,glycan array binding signal (z-score),[2],-0.23
same,glycan array binding signal (z-score),[3],2.81
same,glycan array binding signal (z-score),[4],0.777
same,glycan array binding signal (z-score),Fuc(a1-3)GlcNAc,-0.29
same,glycan array binding signal (z-score),[5],-0.298
same,glycan array binding signal (z-score),[6],-0.326
same,glycan array binding signal (z-score),[7],-0.367
same,glycan array binding signal (z-score),[8],-0.142
same,glycan array binding signal (z-score),[9],-0.283
same,glycan array binding signal (z-score),[10],-0.322
same,glycan array binding signal (z-score),[11],-0.125
same,glycan array binding signal (z-score),[12],-0.223
same,glycan array binding signal (z-score),[13],-0.133
same,glycan array binding signal (z-score),[14],-0.316
same,glycan array binding signal (z-score),Fuc(a1-4)GlcNAc,-0.291
same,glycan array binding signal (z-score),Fuc(b1-3)GlcNAc,-0.24
same,glycan array binding signal (z-score),Gal(a1-2)Gal,-0.306
same,glycan array binding signal (z-score),Gal(a1-3)Gal,-0.238
same,glycan array binding signal (z-score),Gal(a1-3)Gal(b1-3)GlcNAc,-0.194
same,glycan array binding signal (z-score),Gal(a1-3)Gal(b1-4)Glc,-0.092
same,glycan array binding signal (z-score),Gal(a1-3)Gal(b1-4)GlcNAc,-0.013
same,glycan array binding signal (z-score),[15],0.093
same,glycan array binding signal (z-score),Gal(a1-3)GalNAc,-0.235
same,glycan array binding signal (z-score),[16],0.454
same,glycan array binding signal (z-score),Gal(a1-4)Gal(b1-4)Glc,-0.229
same,glycan array binding signal (z-score),Gal(a1-4)Gal(b1-4)GlcNAc,-0.141
same,glycan array binding signal (z-score),Gal(a1-4)GlcNAc,-0.263
same,glycan array binding signal (z-score),Gal(a1-6)Glc,-0.311
same,glycan array binding signal (z-score),Gal(b1-2)Gal,-0.323
same,glycan array binding signal (z-score),Gal(b1-3)Gal,-0.294
same,glycan array binding signal (z-score),Gal(b1-3)GalNAc,-0.22
same,glycan array binding signal (z-score),[17],-0.31
same,glycan array binding signal (z-score),[18],-0.14
same,glycan array binding signal (z-score),[19],-0.024
same,glycan array binding signal (z-score),Gal(b1-3)GlcNAc,0.371
same,glycan array binding signal (z-score),[20],-0.279
